# Laboratory results as given in PubChem BioAssay AID360 (National Center for Advancing Translational Sciences (NCATS), 2006).
# The whole screen tested about 48,000 compounds, of which about 550 (1.1%) were called active. Not shown: some 4% with an inconclusive outcome. Cut-off read from the data, not from the text of the source: active = potency below about 15 µM; inconclusive = mostly about 16 µM to 33 µM; inactive = weaker than that. This is one part of the list.
# Target: Lysosomal acid glucosylceramidase (Homo sapiens) (UniProt P04062)
# Assay: Glucocerebrosidase;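 note: the screen sought inhibitors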
# Details: purified enzyme, resorufin glucoside fluorescence (screen aimed at inhibitors), 20 min
# How it was run: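 Normal human glucocerebrosidase (0.2 nM final) was assayed with resorufin β-D-glucopyranoside (30 uM final) in 50mM citric acid/KH2PO4, 10mM sodium taurocholate, 0.01% tween-20, pH 5.9. Compounds were titrated; fluorescence (Ex 548, Em 600) read after 20 min at RT.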
# Potency is the fitted concentration of half-maximal effect.
# Sequence of UniProt P04062 (P04062 whole entry, looked up): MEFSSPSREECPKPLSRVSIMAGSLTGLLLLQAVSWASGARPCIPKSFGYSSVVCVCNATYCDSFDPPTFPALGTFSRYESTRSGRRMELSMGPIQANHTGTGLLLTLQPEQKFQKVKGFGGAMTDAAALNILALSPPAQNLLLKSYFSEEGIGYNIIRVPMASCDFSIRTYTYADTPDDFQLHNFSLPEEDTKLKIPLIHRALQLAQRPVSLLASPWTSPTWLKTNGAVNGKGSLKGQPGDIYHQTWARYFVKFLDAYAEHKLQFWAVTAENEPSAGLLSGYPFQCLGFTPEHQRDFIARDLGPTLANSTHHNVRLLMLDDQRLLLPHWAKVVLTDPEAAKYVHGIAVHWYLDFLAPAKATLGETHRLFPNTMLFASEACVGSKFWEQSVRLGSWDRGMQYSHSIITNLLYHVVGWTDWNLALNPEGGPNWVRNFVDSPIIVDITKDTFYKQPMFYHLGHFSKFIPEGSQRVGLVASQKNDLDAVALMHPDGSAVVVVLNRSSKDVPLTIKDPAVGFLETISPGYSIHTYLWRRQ
row,SMILES,Potency
1,Cc1cc2nn(-c3cccc4ccccc34)nc2cc1N,inactive: > 76.9 µM
2,O=C(c1c(F)cccc1F)N(Cc1ccccn1)C1CCCC1,inactive: > 76.9 µM
3,Cc1cc(C(=O)Cn2cncn2)c(C)n1CCc1ccc(F)cc1,inactive: > 76.9 µM
4,CCc1ccc(NC(=O)CNS(=O)(=O)c2c(C)noc2C)cc1,inactive: > 76.9 µM
5,COC(=O)[C@@H](NC(=O)Nc1ccc2c(c1)OCCO2)C(C)C,inactive: > 76.9 µM
6,Cn1c(CSCc2ccc(Cl)c(Cl)c2)nnc1SCC(=O)Nc1nccs1,inactive: > 76.9 µM
7,CCC(=O)NCCCCNC(=O)CC,inactive: > 76.9 µM
8,CC(C)C(=O)Nc1c2c(nc3c1CCC3)CCCC2,inactive: > 76.9 µM
9,COc1ccc(NC(=O)N[C@@H](CCSC)C(=O)O)cc1Cl,inactive: > 76.9 µM
10,COc1ccccc1C(=O)Nc1ccc(-c2nnc(SCC(=O)O)n2C)cc1,inactive: > 76.9 µM
11,N[C@@H](Cc1ccccc1)c1nnc(SCc2ccccc2F)o1,inactive: > 76.9 µM
12,COC(=O)c1nc(-c2ccccc2)oc1N(C)C,inactive: > 76.9 µM
13,Cn1c(=O)[nH]c(=O)c2c1nc(NCCCn1ccnc1)n2Cc1cccc(Br)c1,inactive: > 76.9 µM
14,COC(=O)c1ccc(O)c(Sc2cc(C(=O)OC)ccc2O)c1,inactive: > 76.9 µM
15,O=S(=O)(Nc1cccc2ncccc12)c1cccs1,inactive: > 76.9 µM
16,CCNc1ccc(S(=O)(=O)C(F)(F)F)cc1NC(=O)C12CCC(CC1)C2,inactive: > 76.9 µM
17,Cc1cc(C)c(C(=O)COC(=O)Cn2cnnn2)cc1C,inactive
18,O=C(Nn1cnnc1)c1ccccc1-c1ccccc1,inactive: > 76.9 µM
19,Cc1ccc(C)c(N2CCN(C(=O)CCS(=O)(=O)c3cccc4nonc34)CC2)c1,inactive: > 76.9 µM
20,Cc1cc(C)c(NC(=O)CN2CCN3CCCC3C2)c(C)c1 (stereo not given),inactive: > 76.9 µM

row,SMILES,Potency
1,CCOC(=O)c1sc(=S)n2c1[nH]c(=O)c1ccc(C(=O)OC)cc12,inactive: > 76.9 µM
2,Clc1ccc2nc(CN3CCCCC3)cn2c1,inactive: > 76.9 µM
3,O=c1cc(-c2ccccc2)nc(N2CCCCC2)[nH]1,inactive: > 76.9 µM
4,O=C(CCNS(=O)(=O)c1cccc2nsnc12)NCc1cccs1,inactive: > 76.9 µM
5,Cc1nnc(NC(=O)c2ccccc2Br)s1,active: 3.89 µM
6,COCCN(CCOC)S(=O)(=O)c1ccc(C(=O)Nc2nnc(C)o2)cc1,inactive: > 76.9 µM
7,Cc1ccc(-c2[nH]nc3c2C(c2cccnc2)C(C#N)=C(N)O3)cc1 (stereo not given),inactive: > 76.9 µM
8,NCCc1nnc(SCc2ccccc2)o1,inactive: > 76.9 µM
9,Cc1noc(NS(=O)(=O)c2ccc(NC(=O)C34CCC(CC3)C4)cc2)c1C,inactive: > 76.9 µM
10,O=C(Nc1cnccn1)c1ccncc1,inactive: > 76.9 µM
11,COc1nc(N)nc(N2CCOCC2)n1,inactive: > 76.9 µM
12,Fc1ccc(NCc2cn3ccccc3n2)cc1,inactive: > 76.9 µM
13,FC(F)(F)c1ccc2c(c1)nc1n2CCCC1,inactive: > 76.9 µM
14,CC(C)(Oc1ccc(Cl)cc1)C(=O)NCCCn1ccnc1,inactive: > 76.9 µM
15,CCOC(=O)c1cn2c3c(c(F)c(F)c(F)c3c1=O)SC(N1CCCC1)=N2,inactive: > 76.9 µM
16,CCCCOC(=O)C1=C(C)Nc2ncnn2C1c1cc(OC)ccc1OC (stereo not given),inactive: > 76.9 µM
17,COc1ccc(-c2cc(C(=O)NCCc3ccccc3)no2)cc1OC,inactive: > 76.9 µM
18,O=C(CSc1nc2ccccc2[nH]1)NCCN1CCCCC1,inactive: > 76.9 µM
19,Cc1ccccc1S(=O)(=O)Cc1ccc(C(=O)NCCN2CCN(Cc3ccccc3)CC2)o1,inactive: > 76.9 µM
20,[O-]/[N+](=C\c1ccncc1)c1ccccc1,inactive: > 76.9 µM

row,SMILES,Potency
1,CCOCCCNc1nc2c(c(=O)n(C)c(=O)n2C)n1CCCc1ccccc1,inactive: > 76.9 µM
2,COC(=O)c1ccccc1NC(=O)CN1CCC(n2nnc3cc(F)ccc32)CC1,inactive: > 76.9 µM
3,C=COC(=O)CSc1snc(SCC(=O)OC)c1C#N,inactive: > 76.9 µM
4,CCCCCn1c(SCCC(C)C)nc2c1c(=O)[nH]c(=O)n2C,inactive: > 76.9 µM
5,CCc1ccc(-c2nc(CSCC(=O)NCCCN3CCCC3=O)c(C)o2)cc1,inactive: > 76.9 µM
6,CCN(CC)S(=O)(=O)c1ccc2nc(CSc3nnnn3-c3ccc(O)cc3)[nH]c2c1,inactive
7,CC1CCc2nc(NC(=O)CSc3nc4ccccc4o3)sc2C1 (stereo not given),inactive: > 76.9 µM
8,CC(=O)Nc1ccc(S(=O)(=O)N2CCCCC2c2cccnc2)cc1 (stereo not given),inactive: > 76.9 µM
9,COc1cc2c(cc1OC)C(/C(C#N)=N\O)=NC(C)(C)C2,inactive: > 76.9 µM
10,CCOCCCNC(=O)c1c[nH]c2cc(C)ccc2c1=O,inactive: > 76.9 µM
11,COC(=O)c1ccc(N(CC(=O)NC2CCCC2)C(=O)CNC(=O)c2ccco2)cc1,inactive: > 76.9 µM
12,CCOc1ccccc1NC(=O)c1ccc(F)c(S(=O)(=O)N2CCC3(CC2)OCCO3)c1,inactive: > 76.9 µM
13,Cc1ccc(S(=O)(=O)Nc2cc(C(=O)N3CCOCC3)ccc2N2CCCCC2)cc1,inactive: > 76.9 µM
14,Cc1nccn1CCC(=O)O,inactive: > 76.9 µM
15,Cc1cccc2cc(CN(CCCN3CCOCC3)Cc3nnnn3C(C)(C)C)c(=O)[nH]c12,inactive: > 76.9 µM
16,COc1cc(C2CC(=O)NC3=C2C(=O)CC(C)(C)C3)ccc1O (stereo not given),inactive: > 76.9 µM
17,O=C(Nc1ccn(-c2ccccc2)n1)c1ccc(S(=O)(=O)N2CCCCCC2)cc1,inactive: > 76.9 µM
18,O=C(CN1C(=O)c2cccc3cccc1c23)N1CCN(Cc2ccc3c(c2)OCO3)CC1,inactive: > 76.9 µM
19,CCOc1cc(C(=O)N2CCc3cc(OC)c(OC)cc3C2)ccc1OC(F)F,inactive: > 76.9 µM
20,CC12CCC(C(=O)N3CCN(Cc4ccccc4)CC3)(OC1=O)C2(C)C (stereo not given),inactive: > 76.9 µM
